By IC50 is meant the dose at which the fit gives 50% viability; fits outside the tested doses are given as limits. AUC, from the same fit, is the share of area under the viability curve across the 256-fold dose range: 1 means no effect, lower means more sensitive. The top dose, if marked as inferred, was derived from the fitted curves, not read from the paper. For part of these data: An entry number marks a drug with two screens in the source, which often give different values.
compound: Cc1cc(N2CCOCC2)cc2[nH]c(-c3c(NC[C@@H](O)c4cccc(Cl)c4)cc[nH]c3=O)nc12 [BMS-536924]; test: Viability of human cancer cell lines after 72 h of drug (GDSC screen); settings: top dose 4 µM; screen: GDSC drug entry 1091; top dose inferred
Method: (§1)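 Human cancer cell lines in 384-well plates, medium with 10% serum, drug for 72 h over a 256-fold dose range (nine 2-fold or five 4-fold steps up to the top dose). Adherent lines were fixed and stained with the nucleic acid dye Syto60, suspension lines read with resazurin; signal relative to control wells, capped at 0 and 100%. One two-parameter sigmoid per drug and line, fitted in a mixed model over all curves with the slope shared within a line.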

| Cell Line | AUC | IC50 [nM] |
| --- | --- | --- |
| SK-MEL-31 (melanoma, adherent) | 0.965 | > 4000 |
| SK-OV-3 (ovary, adherent) | 0.917 | > 4000 |
| SNU-61 (large intestine, adherent) | 0.979 | > 4000 |
| SUP-B8 (B-cell leukaemia, suspension) | 0.986 | > 4000 |
| T47D (breast, adherent) | 0.884 | > 4000 |
| TC-YIK (cervix, suspension) | 0.845 | 2330 |

compound: CC(C)=CC[C@@H](O)C1=CC(=O)c2c(O)ccc(O)c2C1=O [Shikonin]; test: as above; settings: top dose 16 µM; top dose inferred
Method: as §1

| Cell Line | AUC | IC50 [nM] |
| --- | --- | --- |
| 42-MG-BA (glioma, adherent) | 0.599 | 1900 |
| 201T (lung adenocarcinoma, adherent) | 0.474 | 836 |
| 647-V (bladder, adherent) | 0.345 | 370 |
| 5637 (bladder, adherent) | 0.869 | 12500 |
| 23132-87 (stomach, adherent) | 0.541 | 1300 |
| A431 (skin, adherent) | 0.203 | 139 |
| BFTC-905 (bladder, adherent) | 0.325 | 353 |
| BICR78 (head and neck, adherent) | 0.482 | 887 |
| BxPC-3 (pancreas, adherent) | 0.366 | 406 |
| C-33-A (cervix, adherent) | 0.431 | 648 |
| COLO-205 (large intestine, suspension) | 0.378 | 465 |
| DU-145 (prostate, adherent) | 0.261 | 190 |
| HT-1080 (fibrosarcoma, adherent) | 0.244 | 201 |
| KP-1N (pancreas, adherent) | 0.519 | 1130 |
| MIA-PaCa-2 (pancreas, adherent) | 0.31 | – |
| NCI-H647 (non-small cell lung carcinoma, adherent) | 0.549 | 1370 |
| NCI-H1693 (lung adenocarcinoma, adherent) | 0.78 | 11300 |
| NCI-H2023 (lung adenocarcinoma, adherent) | 0.865 | > 16000 |
| NCI-H2052 (mesothelioma, adherent) | 0.379 | 421 |
| NCI-H3122 (lung adenocarcinoma, adherent) | 0.384 | 475 |
| PA-1 (ovary, adherent) | 0.271 | 267 |
| SK-OV-3 (ovary, adherent) | 0.634 | 2590 |
| T47D (breast, adherent) | 0.39 | 423 |

compound: NC(=O)c1ccc(N(C(N)=O)c2c(F)cccc2F)nc1-c1ccc(F)cc1F [VX-702]; test: as above; settings: top dose 2 µM; top dose inferred
Method: as §1

| Cell Line | AUC | IC50 [nM] |
| --- | --- | --- |
| 42-MG-BA (glioma, adherent) | 0.985 | > 2000 |
| 201T (lung adenocarcinoma, adherent) | 0.95 | > 2000 |
| 647-V (bladder, adherent) | 0.986 | > 2000 |
| 5637 (bladder, adherent) | 0.989 | > 2000 |
| 23132-87 (stomach, adherent) | 0.986 | > 2000 |
| A431 (skin, adherent) | 0.982 | > 2000 |
| BFTC-905 (bladder, adherent) | 0.988 | > 2000 |
| BICR78 (head and neck, adherent) | 0.981 | > 2000 |
| BxPC-3 (pancreas, adherent) | 0.982 | > 2000 |
| C-33-A (cervix, adherent) | 0.986 | > 2000 |
| COLO-205 (large intestine, suspension) | 0.968 | > 2000 |
| COR-L321 (lung, suspension) | 0.977 | > 2000 |
| DU-145 (prostate, adherent) | 0.521 | 144 |
| HT-1080 (fibrosarcoma, adherent) | 0.987 | > 2000 |
| KMS-11 (myeloma, suspension) | 0.978 | > 2000 |
| KP-1N (pancreas, adherent) | 0.986 | > 2000 |
| MHH-CALL-2 (B-cell leukaemia, suspension) | 0.997 | > 2000 |
| MIA-PaCa-2 (pancreas, adherent) | 0.96 | > 2000 |
| MOLM-16 (acute myeloid leukaemia, suspension) | 0.876 | 1580 |
| MOLT-16 (T-cell lymphoblastic leukaemia, suspension) | 0.97 | > 2000 |

| Cell Line | AUC | IC50 [nM] |
| --- | --- | --- |
| NCI-H146 (small cell lung carcinoma, suspension) | 0.942 | > 2000 |
| NCI-H647 (non-small cell lung carcinoma, adherent) | 0.985 | > 2000 |
| NCI-H835 (lung carcinoid, suspension) | 0.983 | > 2000 |
| NCI-H1105 (small cell lung carcinoma, suspension) | 0.981 | > 2000 |
| NCI-H1341 (small cell lung carcinoma, suspension) | 0.992 | > 2000 |
| NCI-H1693 (lung adenocarcinoma, adherent) | 0.969 | > 2000 |
| NCI-H2023 (lung adenocarcinoma, adherent) | 0.94 | > 2000 |
| NCI-H2052 (mesothelioma, adherent) | 0.978 | > 2000 |
| NCI-H3122 (lung adenocarcinoma, adherent) | 0.987 | > 2000 |
| OACM5-1 (oesophagus, semi-adherent) | 0.984 | > 2000 |
| PA-1 (ovary, adherent) | 0.993 | > 2000 |
| RCH-ACV (B-cell leukaemia, suspension) | 0.909 | 1940 |
| RH-18 (rhabdomyosarcoma, adherent) | 0.976 | > 2000 |
| SK-MEL-31 (melanoma, adherent) | 0.985 | > 2000 |
| SK-OV-3 (ovary, adherent) | 0.981 | > 2000 |
| SNU-61 (large intestine, adherent) | 0.985 | > 2000 |
| SUP-B8 (B-cell leukaemia, suspension) | 0.989 | > 2000 |
| T47D (breast, adherent) | 0.969 | > 2000 |
| TC-YIK (cervix, suspension) | 0.99 | > 2000 |

compound: O=C(c1cc(Cc2n[nH]c(=O)c3ccccc23)ccc1F)N1CCN(C(=O)C2CC2)CC1 [Olaparib]; test: as above; settings: top dose 5 µM; screen: GDSC drug entry 1017; top dose inferred
Method: as §1

| Cell Line | AUC | IC50 [nM] |
| --- | --- | --- |
| 42-MG-BA (glioma, adherent) | 0.923 | > 5000 |
| 201T (lung adenocarcinoma, adherent) | 0.976 | > 5000 |
| 647-V (bladder, adherent) | 0.978 | > 5000 |
| 5637 (bladder, adherent) | 0.916 | > 5000 |
| 23132-87 (stomach, adherent) | 0.985 | > 5000 |
| A431 (skin, adherent) | 0.988 | > 5000 |
| BFTC-905 (bladder, adherent) | 0.989 | > 5000 |
| BICR78 (head and neck, adherent) | 0.939 | > 5000 |
| BxPC-3 (pancreas, adherent) | 0.983 | > 5000 |
| C-33-A (cervix, adherent) | 0.945 | > 5000 |
| COLO-205 (large intestine, suspension) | 0.964 | > 5000 |
| COR-L321 (lung, suspension) | 0.971 | > 5000 |
| KMS-11 (myeloma, suspension) | 0.967 | > 5000 |
| KP-1N (pancreas, adherent) | 0.986 | > 5000 |
| MHH-CALL-2 (B-cell leukaemia, suspension) | 0.994 | > 5000 |
| MIA-PaCa-2 (pancreas, adherent) | 0.941 | > 5000 |
| MOLM-16 (acute myeloid leukaemia, suspension) | 0.933 | > 5000 |

| Cell Line | AUC | IC50 [nM] |
| --- | --- | --- |
| MOLT-16 (T-cell lymphoblastic leukaemia, suspension) | 0.909 | 4460 |
| NCI-H146 (small cell lung carcinoma, suspension) | 0.975 | > 5000 |
| NCI-H647 (non-small cell lung carcinoma, adherent) | 0.974 | > 5000 |
| NCI-H835 (lung carcinoid, suspension) | 0.987 | > 5000 |
| NCI-H1105 (small cell lung carcinoma, suspension) | 0.949 | > 5000 |
| NCI-H1341 (small cell lung carcinoma, suspension) | 0.991 | > 5000 |
| NCI-H2052 (mesothelioma, adherent) | 0.978 | > 5000 |
| NCI-H3122 (lung adenocarcinoma, adherent) | 0.986 | > 5000 |
| OACM5-1 (oesophagus, semi-adherent) | 0.986 | > 5000 |
| PA-1 (ovary, adherent) | 0.924 | 4980 |
| RCH-ACV (B-cell leukaemia, suspension) | 0.868 | 3270 |
| RH-18 (rhabdomyosarcoma, adherent) | 0.976 | > 5000 |
| SK-MEL-31 (melanoma, adherent) | 0.985 | > 5000 |
| SNU-61 (large intestine, adherent) | 0.948 | > 5000 |
| SUP-B8 (B-cell leukaemia, suspension) | 0.987 | > 5000 |
| TC-YIK (cervix, suspension) | 0.975 | > 5000 |

same assay, conditions: top dose 10 µM; screen: GDSC drug entry 1495

| Cell Line | AUC | IC50 [nM] |
| --- | --- | --- |
| 42-MG-BA (glioma, adherent) | 0.884 | > 10000 |
| 647-V (bladder, adherent) | 0.89 | > 10000 |
| 5637 (bladder, adherent) | 0.952 | > 10000 |
| 23132-87 (stomach, adherent) | 0.921 | > 10000 |
| A431 (skin, adherent) | 0.901 | > 10000 |
| BFTC-905 (bladder, adherent) | 0.948 | > 10000 |
| BICR78 (head and neck, adherent) | 0.963 | > 10000 |
| BxPC-3 (pancreas, adherent) | 0.971 | > 10000 |
| C-33-A (cervix, adherent) | 0.848 | 7460 |
| COLO-205 (large intestine, suspension) | 0.98 | > 10000 |
| COR-L321 (lung, suspension) | 0.961 | > 10000 |
| KMS-11 (myeloma, suspension) | 0.986 | > 10000 |
| KP-1N (pancreas, adherent) | 0.896 | > 10000 |
| MHH-CALL-2 (B-cell leukaemia, suspension) | 0.997 | > 10000 |
| MIA-PaCa-2 (pancreas, adherent) | 0.962 | > 10000 |
| MOLM-16 (acute myeloid leukaemia, suspension) | 0.954 | > 10000 |
| MOLT-16 (T-cell lymphoblastic leukaemia, suspension) | 0.816 | 4200 |
| NCI-H146 (small cell lung carcinoma, suspension) | 0.981 | > 10000 |
| NCI-H647 (non-small cell lung carcinoma, adherent) | 0.831 | 6760 |
| NCI-H835 (lung carcinoid, suspension) | 0.969 | > 10000 |
| NCI-H1105 (small cell lung carcinoma, suspension) | 0.927 | > 10000 |
| NCI-H1341 (small cell lung carcinoma, suspension) | 0.974 | > 10000 |
| NCI-H3122 (lung adenocarcinoma, adherent) | 0.953 | > 10000 |
| OACM5-1 (oesophagus, semi-adherent) | 0.98 | > 10000 |
| RCH-ACV (B-cell leukaemia, suspension) | 0.868 | 6540 |
| RH-18 (rhabdomyosarcoma, adherent) | 0.964 | > 10000 |
| SK-MEL-31 (melanoma, adherent) | 0.959 | > 10000 |
| SNU-61 (large intestine, adherent) | 0.981 | > 10000 |
| SUP-B8 (B-cell leukaemia, suspension) | 0.966 | > 10000 |
| TC-YIK (cervix, suspension) | 0.922 | > 10000 |

Source: the supplement of paper PMC4967469
